# Source: the supplement of paper PMC9135407
# Where “and” joins values, the source holds several entries; their conditions need not be identical. Identical values can stand only once. Counter-ions that a name gives are not always drawn. Screen size: about 5,800 compounds; about 620 (11%) showed activity.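 Rule for the calls: active = score above a cut-off or among the top three wells of a plate; in these data no inactive exceeds 0.85.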 Only a part is listed here, and it is no random draw.
# Test system: primary human hepatic stellate cells (donor 1)
# Assay: scaled lipid accumulation score (0 = DMSO-like, 1 = nortriptyline-like); higher = stronger HSC inactivation (lipid re-accumulation), active = hit call of the paper
# Details: 48 h
# Procedure: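 Primary lipid accumulation screen in primary human hepatic stellate cell myofibroblasts (donor 1, passage 8) in 384-well plates. 100 nL of library compound was pin-transferred into 30 µL medium in duplicate, and cells were treated for 48 h. The 'Scaled' score combines distance from plate baseline, toxicity and reproducibility penalties, and is normalised to nortriptyline (positive) and DMSO (negative) controls on each plate. A hit is defined as scaled >0.85 or among the top 3 wells per plate.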
# [1] = library stock concentration: 10 mM
# [2] = library stock concentration: 3.33 mM
# [3] = library stock concentration: 1 mM
# [4] = library stock concentration: 2 mM
# [5] = library stock concentration: 4.8 mM
smiles,measurement,setting,value
COc1ccccc1N1CCN(CCCCNC(=O)c2ccc3ccccc3c2)CC1,scaled lipid accumulation score,[1],active: 1.01
CCCCCCCCCCC1=C(C)C(=O)C(OC)=C(OC)C1=O [Decylubiquinone],scaled lipid accumulation score,library stock concentration: 15.5 mM,inactive: ≤ -0.021
c1ccc(-c2cnc(Nc3ccc(OCCN4CCCC4)cc3)s2)cc1 [Flt-3 Inhibitor III],scaled lipid accumulation score,[2],active: 1.17
O=C(O)c1cc(=O)c2ccccc2o1 [Chromocarb],scaled lipid accumulation score,[2],inactive: ≤ 0
same,scaled lipid accumulation score,[1],inactive: ≤ -0.001 and inactive: 0.052
NC(=S)c1ccc[n+]([C@@H]2O[C@@H](COP(=O)([O-])OP(=O)(O)OC[C@H]3O[C@@H](n4cnc5c(N)ncnc54)C(OP(=O)(O)O)[C@H]3O)C(O)C2O)c1 (some centres undefined) [Thio-NADP sodium],scaled lipid accumulation score,[1],inactive: ≤ 0
CCOc1cc([C@@H](CS(C)(=O)=O)N2C(=O)c3cccc(NC(C)=O)c3C2=O)ccc1OC,scaled lipid accumulation score,[2],inactive: ≤ -0.009
same,scaled lipid accumulation score,[1],inactive: ≤ 0
CCCCCCCCCCCCC/C=C/[C@@H](O)[C@H](CO)NC(C)=O [C2 Ceramide],scaled lipid accumulation score,[3],inactive: ≤ -0.021
CCCCCCCCCCCCC/C=C/[C@@H](O)[C@H](CO)NC(C)=O [C-2 Ceramide],scaled lipid accumulation score,[3],inactive: ≤ 0
CC1=C(C(=O)OC(C)C)C(c2cccc([N+](=O)[O-])c2)C(C(=O)OC2CN(C(c3ccccc3)c3ccccc3)C2)=C(N)N1 (centres undefined) [Azelnidipine],scaled lipid accumulation score,[2],inactive: 0.061
same,scaled lipid accumulation score,[1],inactive: 0.189
Cc1cc(C2CCCCC2)n(O)c(=O)c1 [Ciclopirox ethanolamine],scaled lipid accumulation score,,inactive: 0.37
same,scaled lipid accumulation score,[2],inactive: 0.244
same,scaled lipid accumulation score,[1],inactive: 0.269
Cc1cc(C2CCCCC2)n(O)c(=O)c1 [Ciclopirox],scaled lipid accumulation score,[2],inactive: 0.015
same,scaled lipid accumulation score,[1],inactive: 0.096
Cc1cc(C2CCCCC2)n(O)c(=O)c1 [Ciclopirox olamine],scaled lipid accumulation score,library stock concentration: 7.5 mM,inactive: 0.096
same,scaled lipid accumulation score,[1],inactive: 0.082
"CCS(=O)(=O)N(C)[C@H]1c2cc(C#N)ccc2OC(C)(C)[C@@H]1O [(-)-[3R,4S]-Chromanol 293B]",scaled lipid accumulation score,[1],inactive: 0.037
COc1cc(C(=O)NS(=O)(=O)c2ccccc2C)ccc1Cc1cn(C)c2ccc(NC(=O)OC3CCCC3)cc12,scaled lipid accumulation score,[1],inactive: ≤ 0
COc1cc(C(=O)NS(=O)(=O)c2ccccc2C)ccc1Cc1cn(C)c2ccc(NC(=O)OC3CCCC3)cc12 [Zafirlukast],scaled lipid accumulation score,[3],inactive: ≤ 0
same,scaled lipid accumulation score,[2],inactive: ≤ 0
same,scaled lipid accumulation score,library stock concentration: 3.5 mM,inactive: ≤ -0.006
same,scaled lipid accumulation score,[1],inactive: ≤ 0
CN[C@H]1CN(c2ccc3c(=O)c(C(=O)O)cn(-c4nccs4)c3n2)C[C@@H]1OC [Voreloxin (SNS-595)],scaled lipid accumulation score,[2],inactive: ≤ -0.009
same,scaled lipid accumulation score,[1],inactive: 0.037
CC(C)OC(=O)CCC/C=C\C[C@@H]1[C@@H](/C=C/[C@H](O)C2Cc3ccccc3C2)[C@@H](F)C[C@@H]1O [AL 8810 isopropyl ester],scaled lipid accumulation score,[3],inactive: ≤ 0
CN1CCC[C@@H]1CCO[C@](C)(c1ccccc1)c1ccc(Cl)cc1.O=C(O)/C=C/C(=O)O [Clemastine fumarate],scaled lipid accumulation score,[1],active: 0.861
CCc1cncnc1N1CCN(Cc2nc3ccc(C(F)(F)F)cc3[nH]2)CC1,scaled lipid accumulation score,library stock concentration: 80 uM,inactive: ≤ 0
same,scaled lipid accumulation score,library stock concentration: 400 uM,inactive: ≤ 0
same,scaled lipid accumulation score,[4],inactive: ≤ 0
same,scaled lipid accumulation score,[2],inactive: ≤ 0
same,scaled lipid accumulation score,[1],inactive: 0.077 and inactive: 0.419 and inactive: ≤ 0
CNCc1ccc(-c2[nH]c3cc(F)cc4c3c2CCNC4=O)cc1.O=P(O)(O)O [Rucaparib],scaled lipid accumulation score,[1],active: 1.12
S=C1SCN(Cc2ccccc2)CN1Cc1ccccc1,scaled lipid accumulation score,[1],inactive: ≤ 0
"CCCCCCCCC=CCC=CCC=CCCCC(=O)O [5(Z),8(Z),11(Z)-Eicosatrienoic Acid]",scaled lipid accumulation score,[3],inactive: 0.072
COc1cc2ncnc(Nc3ccc(F)c(Cl)c3)c2cc1NC(=O)C=CCN1CCCCC1,scaled lipid accumulation score,[4],active: 0.903
same,scaled lipid accumulation score,[1],active: 1.47
NCC(=O)Nc1ccc(-n2nc(C(F)(F)F)cc2-c2ccc3c(ccc4ccccc43)c2)cc1,scaled lipid accumulation score,[2],inactive: 0.577
same,scaled lipid accumulation score,[1],inactive: ≤ 0
COc1ccc(-c2nc3cc(C4=NNC(=O)CC4C)ccc3[nH]2)cc1 (centres undefined) [Pimobendan],scaled lipid accumulation score,[2],inactive: ≤ 0
same,scaled lipid accumulation score,[1],inactive: 0.097
NS(=O)(=O)c1cc2c(cc1Cl)N=CNS2(=O)=O [Chlorothiazide],scaled lipid accumulation score,,inactive: ≤ 0
same,scaled lipid accumulation score,[2],inactive: ≤ 0
same,scaled lipid accumulation score,library stock concentration: 6.8 mM,inactive: ≤ -0.001
same,scaled lipid accumulation score,[1],inactive: ≤ 0 and inactive: 0.054 and inactive: 0.009
COc1ccc(-c2cnc3c(-c4cccc5ncccc45)cnn3c2)cc1,scaled lipid accumulation score,[2],inactive: 0.037
same,scaled lipid accumulation score,[1],inactive: 0.367
CCCCCCCCCCCCCCCCCCCCCCC(=O)OCC [Ethyl Tricosanoate],scaled lipid accumulation score,[3],inactive: ≤ 0
CN[C@H](CC(C)C)C(=O)N[C@H]1C(=O)N[C@@H](CC(N)=O)C(=O)N[C@H]2C(=O)N[C@H]3C(=O)N[C@H](C(=O)N[C@H](C(=O)O)c4cc(O)cc(O)c4-c4cc3ccc4O)[C@H](O)c3ccc(c(Cl)c3)Oc3cc2cc(c3O[C@@H]2O[C@H](CO)[C@@H](O)[C@H](O)[C@H]2O[C@H]2C[C@](C)(N)[C@H](O)[C@H](C)O2)Oc2ccc(cc2Cl)[C@H]1O [Vancomycin hydrochloride],scaled lipid accumulation score,,inactive: 0.108
same,scaled lipid accumulation score,[1],inactive: ≤ 0
CN[C@H](CC(C)C)C(=O)N[C@H]1C(=O)N[C@@H](CC(N)=O)C(=O)N[C@H]2C(=O)N[C@H]3C(=O)N[C@H](C(=O)N[C@H](C(=O)O)c4cc(O)cc(O)c4-c4cc3ccc4O)[C@H](O)c3ccc(c(Cl)c3)Oc3cc2cc(c3O[C@@H]2O[C@H](CO)[C@@H](O)[C@H](O)[C@H]2O[C@H]2C[C@](C)(N)[C@H](O)[C@H](C)O2)Oc2ccc(cc2Cl)[C@H]1O [Vancomycin hydrochloride from Streptomyces orientalis],scaled lipid accumulation score,[1],inactive: ≤ 0
CNS(=O)(=O)Cc1ccc2[nH]cc(CCN(C)C)c2c1 [Sumatriptan Succinate],scaled lipid accumulation score,[5],inactive: 0.037
CNS(=O)(=O)Cc1ccc2[nH]cc(CCN(C)C)c2c1 [Sumatriptan succinate],scaled lipid accumulation score,[1],inactive: 0.062
CNS(=O)(=O)Cc1ccc2[nH]cc(CCN(C)C)c2c1,scaled lipid accumulation score,[1],inactive: ≤ 0
COc1cc2ncnc(Oc3cccc(NC(=O)Nc4cc(C(C)(C)C(F)(F)F)on4)c3)c2cc1OC,scaled lipid accumulation score,[2],inactive: ≤ -0.009
same,scaled lipid accumulation score,[1],inactive: ≤ 0
O=c1c(O)c(-c2ccc(O)c(O)c2)oc2cc(O)ccc12 [Fisetin],scaled lipid accumulation score,[2],inactive: ≤ 0
same,scaled lipid accumulation score,[1],inactive: ≤ 0
CCC(CC)(CC(=O)Nc1cccc(/C=C/c2nc(C3CCC3)cs2)c1)C(=O)O [Cinalukast],scaled lipid accumulation score,[1],inactive: 0.005
NC(=O)c1ncn([C@@H]2O[C@H](CO)[C@@H](O)[C@H]2O)n1 [Ribavirin],scaled lipid accumulation score,,inactive: ≤ 0
same,scaled lipid accumulation score,[2],inactive: ≤ 0
same,scaled lipid accumulation score,[1],inactive: ≤ 0 and inactive: 0.162
CCCCCCCCCCCCCCCCNc1ccc(C(=O)O)cc1 [Cetaben],scaled lipid accumulation score,[3],inactive: 0.024
CCOC(=O)[C@H](CCc1ccccc1)N[C@@H](C)C(=O)N1[C@H](C(=O)O)C[C@@H]2CCC[C@@H]21 [Ramipril],scaled lipid accumulation score,,inactive: ≤ 0
same,scaled lipid accumulation score,[2],inactive: 0.1
same,scaled lipid accumulation score,[5],inactive: ≤ 0
same,scaled lipid accumulation score,[1],inactive: ≤ 0
CCOC(=O)[C@H](CCc1ccccc1)N[C@@H](C)C(=O)N1[C@H](C(=O)O)C[C@@H]2CCC[C@@H]21,scaled lipid accumulation score,[1],inactive: ≤ 0
CCOc1ccc2c(c1)C(C)=CC(C)(C)N2 [Ethoxyquin],scaled lipid accumulation score,,inactive: ≤ 0
same,scaled lipid accumulation score,[1],inactive: ≤ 0
Cc1ccc(S(=O)(=O)n2c(N)nc3ccccc32)cc1 [ML130 (Nodinitib-1)],scaled lipid accumulation score,[2],inactive: 0.011
same,scaled lipid accumulation score,[1],inactive: 0.086
"Cn1c(=O)c2[nH]c(C3CCCC3)nc2n(C)c1=O [8-Cyclopentyl-1,3-dimethylxanthine]",scaled lipid accumulation score,[1],inactive: 0.066
C=NC(C(=O)NC1C(=O)N2C1SC(C)(C)C2C(=O)O)c1ccccc1 (centres undefined) [Metampicillin sodium],scaled lipid accumulation score,[1],inactive: ≤ 0
CC(C)COCC(CN(Cc1ccccc1)c1ccccc1)N1CCCC1 (centres undefined) [Bepridil hydrochloride],scaled lipid accumulation score,,inactive: 0.677
same,scaled lipid accumulation score,library stock concentration: 5 mM,inactive: 0.569
same,scaled lipid accumulation score,[1],inactive: 0.175 and inactive: 0.195
O=C(Nc1ccc(C(=O)O)c(O)c1)c1ccccc1 [Benzoylpas],scaled lipid accumulation score,library stock concentration: 7.8 mM,inactive: ≤ 0
CCCCOC(=O)c1ccc(N)cc1 [Butamben],scaled lipid accumulation score,,inactive: ≤ 0
same,scaled lipid accumulation score,[1],inactive: ≤ 0
CS(=O)(=O)CCNCc1ccc(-c2ccc3ncnc(Nc4ccc(OCc5cccc(F)c5)c(Cl)c4)c3c2)o1,scaled lipid accumulation score,[4],active: 1.7
OC1C[C@@H]2[C@@H](CC[C@@H](O)CCc3ccccc3)[C@H](O)C[C@@H]2O1 (some centres undefined) [Latanoprost Lactol],scaled lipid accumulation score,[3],inactive: 0.027
O=[N+]([O-])c1ccc2c(c1)S(=O)(=O)C=C2 [Stattic],scaled lipid accumulation score,[1],inactive: 0.347
Nc1ccc(-c2ccc3ccccc3n2)cc1 [BF-170 hydrochloride],scaled lipid accumulation score,[1],inactive: 0.028
CC[C@H]1OC(=O)[C@H](C)[C@@H](O[C@H]2C[C@@](C)(OC)[C@@H](O)[C@H](C)O2)[C@H](C)[C@@H](O[C@@H]2O[C@H](C)C[C@H](N(C)C)[C@H]2O)[C@](C)(OC)C[C@@H](C)C(=O)[C@H](C)[C@@H](O)[C@]1(C)O,scaled lipid accumulation score,[1],inactive: 0.152
CC[C@H]1OC(=O)[C@H](C)[C@@H](O[C@H]2C[C@@](C)(OC)[C@@H](O)[C@H](C)O2)[C@H](C)[C@@H](O[C@@H]2O[C@H](C)C[C@H](N(C)C)[C@H]2O)[C@](C)(OC)C[C@@H](C)C(=O)[C@H](C)[C@@H](O)[C@]1(C)O [Clarithromycin],scaled lipid accumulation score,[2],inactive: ≤ 0
same,scaled lipid accumulation score,[1],inactive: ≤ 0 and inactive: ≤ -0.012
